Results: the supplement of paper PMC3724861
Some of the results follow.

System: T1, Caupolican (Caup) homeodomain DNA-binding domain
T1 sequence: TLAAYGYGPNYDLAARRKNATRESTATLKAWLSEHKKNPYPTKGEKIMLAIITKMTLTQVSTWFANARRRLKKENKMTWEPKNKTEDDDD
Experiment: PBM E-score (8-mer, recovered from the published 9-mer minima) (E-score (dimensionless, -0.5 to 0.5)); Drosophila protein; higher = stronger relative binding preference, active = 0.31 or more
In short: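 Caup's homeodomain DNA-binding domain (residues 214-303) was made by in vitro transcription and translation and applied at 100 nM to custom-designed protein binding microarrays. Each value is an enrichment score that gives relative binding preference for a short DNA word, with higher meaning stronger. The 8-mer values were recovered from published 9-mer scores, each of which was the minimum of its two constituent 8-mer scores. A cutoff of 0.31 marks candidate sites.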

PBM E-score, active:
GACAAACA 0.312
TACAAGCA ≥ 0.384

PBM E-score, ≥ 0.27:
ACACGAGT

PBM E-score, ≥ 0.11:
ATGATAGC

PBM E-score, inactive:
GTAATAGA 0.151
ATTCTAAC 0.113
AAAGAAAA -0.0119
CGTCTCAA -0.009
GCTTACGA 0.00243
TAGATATA 0.143
AGCCAGTA -0.0899
AAATAAAA 0.132
ACATTCAG 0.00864
ATGATTAC 0.211
CTTACCAC 0.0149
GAGGAATC -0.0831
AATACAAC 0.305
AATAACCA 0.0894
AGTCGGCC -0.211
GGGTTTAA 0.0764
CGCACGGC -0.153
ATATAAAC 0.228
GTCGGTAA 0.0705
AGACAGCG 0.00224
TCGGGCAA -0.0851
GTTGCGAA 0.0156
ACGCAAAT 0.07
CGTGAAAC -0.0302
GTGAGGAA -0.0469
ACAATGAT 0.193
CGACTTGC -0.0587
TACAGCTA 0.106
TCCACGAA 0.04
CCCCACGA -0.225
CATGAGGA 0.0255
GACATTAA 0.275
CCGTGCCC -0.112
AGCTCCTC -0.157
AACGATGC -0.051
ATGTTGAA 0.25
CTCAATGC -0.0912
AGTTTCAA 0.0314
AAACGAGT 0.109
CGAAGGGC -0.266
CCCAATTA 0.0418
GAAGTGAC 0.0523
CCACATGA 0.124
AAAATATG 0.152
GAAACGAA 0.0205
CGGGACTA -0.125
CTCACGTC -0.0461
ACAGGATC 0.0378
CGTGTGTC 0.206
ATGCTTCG 0.00705
GCCAATTA 0.0901
ACGTTTAG 0.0756
CTACAGGA 0.245
CGGGCTCC -0.283
AAATGATC 0.0408
CAGGACCG -0.129
CGGGCGGA -0.231
AAAGATAA 0.105
GGCCTTAC -0.0957
ACCCTATA -0.0217
ATTCCATC 0.0883
AGGAAACT 0.025
GGATGCGA -0.0849
CTTATCAC 0.0804
AAGAATTA 0.112
GAAAGTCA 0.00612
AAAGCCCA -0.136
CAAAATTC 0.144
CATCCCCG -0.0904
GTCTAGAA -0.0258
TATTTAGA 0.125
CTGAAGGC -0.235
ACCCGGAA -0.0327
TGATGCAA 0.128
ATCTGGTC 0.0224
ACGTATAT 0.164
CCCGAAAC 0.00339
AATGCACT 0.108
CCATTGTA 0.174
TGCCGACA 0.0745
ATGCAAAG 0.0646
AACGCGAC 0.0514
ATTACCTC 0.033
GCGTTAGA -0.0888
AATTAACG 0.0962
CAAACGCG -0.0496
ATAGTCAG 0.0549
GGGCTTCA -0.177
CCGCTTTC -0.204
AGCCGCAA -0.206
GCACCAGA -0.107
CACTCCTG -0.0507
ACTGAAGC -0.0346
TCACGAGA 0.0378
CGACCTCG -0.0567
ACAATAAT 0.187
AAGAACGG -0.103
AGAAGGCC -0.251
AAGTCATC -0.0589
CTACCGCC -0.187
AGTCCACT -0.0123
CGATTCTA -0.0767
CTGCCAAA -0.0727
AGATAGGG -0.107
TGGAGGAA -0.0989
CGATAAGC -0.0419
ACCGGTAC -0.00124
GAATGCAA 0.095
AGACCAAG -0.00436
ATGCGAAT 0.047
GAAAATGA 0.0722
AATAATGA 0.127
AATAGATC 0.0711
CGCGAGGC -0.143
ACGGGCAC -0.15
AACCTTAT 0.0286
CCAGTCAA -0.0187
AACGGATA 0.0208
ACTCCGGA -0.0149
CCTTAGCC -0.134
CGGAATTA 0.121
GGCCACCA -0.166
GCGGTATA -0.0365
CGTCCATA -0.0481
AGAGCAAG 0.0346
CCAAGCGG -0.157
ACGATCCC -0.0422
ACAATCGT 0.207
GGTACTAA 0.165
GTGGCTAA -0.0321
TTGACAAA 0.181
AAAGGGGG -0.202
CCAACAGG -0.0339
CTATATAC 0.214
CCCGTTCA -0.168

PBM E-score, ≥ 0.0544:
AAGAAGGT

PBM E-score, ≥ 0.0413:
TCTAAAGA

PBM E-score, ≥ 0.0371:
AAAAGTCC
